# According to PubChem BioAssay AID1347417 (National Center for Advancing Translational Sciences (NCATS), 2020):
# Hit rate of the full screen: of about 120,000 compounds, about 5,300 (4.4%) were called active. The shares of active, inactive and inconclusive entries below differ from those in the screen. Calls come from the whole dose curve; as a rule, active = well fitted inhibition curve with a large enough effect; inconclusive = small, poorly fitted or top-dose-only effect; inactive = no such curve, though single readings can be large or run the other way. Where the call is inconclusive, the potency comes from a doubtful curve fit.
# Assay: qHTS Primary assay for Inhibitors of Plasmodium falciparum Dd2 growth in vitro; note: nearly all actives have a fitted effect of over 65% in size;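 for activity, negative = inhibition: plate controls were DMSO vehicle for no effect and reference drug for full effect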
# Settings: P. falciparum Dd2 growth, SYBR Green, 72 h; activity, negative = inhibition: at 28.9 µM (top of the series) unless noted; series mostly up to 28.9 µM
# How it was run: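 Infected erythrocytes (Dd2, 0.3% parasitemia, 2.5% hematocrit final) are added to compound in RPMI-1640/Albumax II medium, grown 72 h at 37C in low oxygen, then lysed with saponin/Triton-X containing SYBR Green and read by fluorescence.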
# Potency is the fitted concentration of half-maximal effect; tags give direction and shape of the fitted curve.
SMILES,Potency,"activity, negative = inhibition"
Cc1cccc(Cn2c(CN3CCCC(C)C3)nc3c2c(=O)n(C)c(=O)n3C)c1 (configuration not stated),"inconclusive: 11.2 µM [inhibitor, single point]",–
Cc1ccc(S(=O)(=O)N2CCc3cc(C(=O)Nc4c(C)cccc4C(C)C)ccc32)cc1,"inconclusive: 17.8 µM [inhibitor, single point]",–
CCNC(=O)N[C@H]1[C@H](O)[C@@H](N2CCC(Cc3ccccc3)CC2)[C@@H]2OC[C@H]1O2,"inconclusive: 15.8 µM [inhibitor, single point]",–
C=CCNC(=O)N[C@H]1CCN2C(=O)c3cc(-c4cc(Cl)ccc4OC)ccc3NC(=O)[C@@H]2C1,"inconclusive: 11.2 µM [inhibitor, partial curve]",–
COc1cccc(CC(=O)Nc2ccc3nc(Nc4cccc(C(F)(F)F)c4)cc(C)c3c2)c1,"inconclusive: 17.8 µM [inhibitor, single point]",–
COC(=O)[C@@H]1Cc2ncn(Cc3ccc(Cl)cc3)c2CN1C(=O)COc1ccccc1,"inconclusive: 11.2 µM [inhibitor, single point]",–
Cc1ccc(F)cc1-n1nc(-c2c(C)nc3scc(CC(=O)NCC(C)C)n3c2=O)cc1C,inactive,–
COc1ccc(-c2nc(CC3CCN(C(=O)c4ccnn4C)C3)no2)cc1 (configuration not stated),"inconclusive: 7.94 µM [inhibitor, partial curve, poor fit]",–
COc1ccc(C(=O)N2CCC(c3nc(C4CCOCC4)no3)CC2)cn1,"inconclusive: 0.282 µM [inhibitor, full curve, poor fit]",–
COc1cccc(CN2CCC(Oc3ccc(C(=O)NC4CCCC4)cc3Cl)CC2)c1,active: 11.2 µM,–
COCc1c(C(=O)N2CCCC3(CCC(=O)N(C4CC4)C3)C2)noc1C (configuration not stated),inactive,–
CCOc1ccc(Cl)cc1CN(C)Cc1cc2n(n1)CCCNC2,active: 5.62 µM,–
CN(C)c1ccc(CN2CCC3(C2)C(=O)N(c2ccccc2)c2ccccc23)cc1 (configuration not stated),"inconclusive: 17.8 µM [inhibitor, single point]",–
Cn1ncc2c(N)nc(NC3CC(c4cc(=O)[nH]c(C5CC5)n4)C3)nc21 (configuration not stated),"inconclusive: 12.6 µM [inhibitor, partial curve, poor fit]",–
CC1Cc2cc(S(=O)(=O)NCc3ccccc3)ccc2N1C(=O)C1CCC1 (configuration not stated),active: 3.55 µM,–
O=[S+]([O-])(c1cccc(C(F)(F)F)c1)N1CCC2(CC(c3cccnc3)=NO2)C1 (configuration not stated),–,inconclusive: -96.4% [inhibitor]
CC1=C(C(=O)OC2CCCCCC2)C(c2ccc(Cl)cc2Cl)CC(=O)N1 (configuration not stated),"inconclusive: 11.2 µM [inhibitor, partial curve, poor fit]",–
